# Assay results as given in PMC6919601, “Identification of Plasmodium dipeptidyl aminopeptidase allosteric inhibitors by high throughput screening” (PLoS ONE, 2019).
# Among all 110,000 compounds or so, about 230 (0.21%) showed an effect of 50% or more. Some of the results follow.
# Biological target: DPAP1 (Plasmodium falciparum, UniProt Q8IIJ9)
# Experiment: primary screen, percent inhibition; read by cleavage of a fluorogenic dipeptide substrate; higher = more effect of the substance
# Set-up: species or system P. falciparum D10 trophozoite lysates; single well
# 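Further: 30 min substrate incubation versus DMSO and 10 µM JCP410 controls.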
# DPAP1, sequence (Q8IIJ9 whole entry, looked up): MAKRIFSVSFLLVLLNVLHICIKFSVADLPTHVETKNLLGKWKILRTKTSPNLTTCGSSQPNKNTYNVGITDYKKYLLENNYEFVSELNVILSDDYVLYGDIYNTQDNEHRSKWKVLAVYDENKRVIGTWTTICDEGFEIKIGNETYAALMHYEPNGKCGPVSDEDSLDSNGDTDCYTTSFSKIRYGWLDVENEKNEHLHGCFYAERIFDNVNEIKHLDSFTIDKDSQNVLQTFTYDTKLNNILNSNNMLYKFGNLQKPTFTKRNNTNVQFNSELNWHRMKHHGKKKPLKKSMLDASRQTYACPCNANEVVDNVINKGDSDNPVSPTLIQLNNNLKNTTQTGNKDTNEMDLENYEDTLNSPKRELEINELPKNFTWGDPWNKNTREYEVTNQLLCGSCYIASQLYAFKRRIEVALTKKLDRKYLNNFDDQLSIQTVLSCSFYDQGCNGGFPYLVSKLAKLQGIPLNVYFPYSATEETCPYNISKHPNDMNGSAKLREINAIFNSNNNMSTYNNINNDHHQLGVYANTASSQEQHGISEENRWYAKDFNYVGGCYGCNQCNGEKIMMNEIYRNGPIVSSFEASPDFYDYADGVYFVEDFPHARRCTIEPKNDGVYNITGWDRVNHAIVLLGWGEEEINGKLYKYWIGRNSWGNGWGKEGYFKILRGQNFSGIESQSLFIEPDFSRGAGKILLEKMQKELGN
row,Compound,% Inhibition @ 10 uM
1,Cc1[nH]ncc1N1C(=O)c2cccc3c(Cl)ccc(c23)C1=O,-2.02%
2,Cc1ccccc1NCC(=O)Nc1c(C)cccc1C,-3.77%
3,O=C(O)CNC(=O)/C(=C\c1ccco1)NC(=O)c1ccccc1,-2.26%
4,Cc1c(CCC#N)c(Cl)n2c(nc3ccccc32)c1C#N,-4.49%
5,Cn1cnc2c1c(=O)n(Cc1ccccc1C#N)c(=O)n2C,2.95%
6,CCOc1ccc(C2NC(S)=NC(C)=C2C(=O)OC)cc1 (centres unmarked),0.736%
7,Cc1cc(NC(=O)c2cccc(COc3cc(Cl)ccc3Cl)c2)no1,-4.77%
8,COc1ccc(OC)c(NC(=O)c2ccccc2C)c1,-6.67%
9,O=C(CCCCCNc1nc(S)nc2ccccc12)NCCc1c[nH]c2ccccc12,6.89%
10,c1cc2nc(C34CC5CC(CC(C5)C3)C4)[nH]c2cn1,2.65%
11,CCC1CCCCN1C(=O)c1cc2c(C)nn(-c3ccccc3)c2s1 (centres unmarked),0.408%
12,CCC(NC(=O)c1csc2c1CCCC2)c1ccccc1 (centres unmarked),-0.992%
13,CC(C)CN1C(=O)c2ccccc2C(C(=O)N2CCC(N3CCCCC3)CC2)C1c1cccs1 (centres unmarked),5.13%
14,S=C1NCN(Cc2ccco2)CN1CC1CCCO1 (centres unmarked),-1.92%
15,CCN(CC)CCNC(=O)c1ccc(CSc2nc3ccncc3n2Cc2ccccc2F)cc1,1.72%
16,O=C1NC(=O)C(c2ccccc2)(c2ccccc2)C(=O)N1,-4.35%
17,O=C(c1cc([N+](=O)[O-])ccc1Cl)N1CCN(c2cccc(Cl)c2)CC1,-1.56%
18,CCN(CCN(C)C)C1CCC(c2ccccc2)CC1 (centres unmarked),4.75%
19,CC(C)c1ccc(OCC(=O)Nc2ccccc2C#N)c(Br)c1,-2.34%
20,O=C(CC(c1ccccc1)c1cc(Br)ccc1O)N1CCCC1 (centres unmarked),-4.84%
21,CC(C)NC(=O)CN(Cc1ccccc1)S(=O)(=O)c1ccccc1,1.81%
22,COc1ccc2cc3c(N)nn(C(=O)/C=C/c4cccnc4)c3nc2c1,4.68%

row,Compound,% Inhibition @ 10 uM
1,Cc1cc(C(c2cc(C)c(N)c(C)c2)c2ccco2)cc(C)c1N,-3.03%
2,CC(C)N(Cc1nc(-c2ccc(Cl)cc2)no1)C(=O)C(C)(C)C,0.232%
3,C=CCO/C(O)=C1/C(C)=Nc2ncnn2C1c1cc(Br)ccc1OC (centres unmarked),-3.37%
4,Cc1ccc(-n2cccc2C=C2C(=O)NC(=O)NC2=O)cc1Cl,1.91%
5,COCc1c(Br)c(C)nc(OCC(=O)O)c1C#N,2.99%
6,CC(Cc1ccccc1F)NC1CCN(Cc2ccccc2)CC1 (centres unmarked),-3.5%
7,CC(C)N1C/C(=C\c2ccc3nccnc3c2)C(=O)/C(=C/c2ccc3nccnc3c2)C1,5.41%
8,COc1cc(NS(=O)(=O)c2ccc(NC(=O)c3cc(Cl)sc3Cl)cc2)nc(OC)n1,-3.46%
9,N#C/C(=C\c1ccc(OCC(=O)O)c(Cl)c1)c1nc2ccccc2[nH]1,-5.2%
10,COCCCN1C(=O)S/C(=C/c2ccc(OC)c(OC)c2)C1=O,-1.44%
11,COc1ccc(Br)cc1CN1CCCC(C(=O)N2CCCCCC2)C1 (centres unmarked),-2.98%
12,COc1ccc(/C=C2\N=C(c3c(-c4ccccc4)noc3C)OC2=O)c(OC)c1,-2.6%
13,Clc1ccc(-c2nc(-c3cccnc3)no2)c(Cl)c1,2.03%
14,Cc1cc(C(=O)c2nc3c(n2O)CCCC3)ccc1Cl,-1.81%
15,COc1ccc(C2=NC3(CCN(C(=O)c4ccccc4C)CC3)NC2=O)cc1,3.5%
16,CCCCCCNC(=O)Cc1cccc2ccccc12,0.238%
17,COc1cccc(/C=C2/N=C(c3cccc(Cl)c3Cl)OC2=O)c1OC,2.28%
18,OCCC1CCCCN1C1CCCCCCC1 (centres unmarked),-0.0908%
19,CCc1ccc(-c2cc(C(F)(F)F)n3nc(C(=O)NCCCOC)cc3n2)s1,-5.81%
20,O=C1C=C(N2CCOCC2)c2ccccc2C1=O,-1.32%
21,COc1ccc(C(=O)N2CCc3ccccc3C2)cc1,3.84%
22,Cn1c(C(=O)N2CCC(C(=O)NCc3ccccn3)CC2)cc2sccc21,-3.35%

row,Compound,% Inhibition @ 10 uM
1,CC(=O)c1cnc2c(-c3ccccc3)c(C)nn2c1C,-0.13%
2,COc1nccc(NCc2ccccc2)c1C#N,4.16%
3,Cc1ccc(S(=O)(=O)Nc2cc(SCC(=O)O)c(O)c3ccccc23)c(C)c1,3.46%
4,CCN1CCN(Cc2c[nH]c3ccccc23)CC1,-0.405%
5,COc1ccc(C2(CNS(=O)(=O)c3ccccc3)CCCC2)cc1OC,0.587%
6,O=C(Nc1ccccc1)c1nc[nH]c1C(=O)Nc1ccccc1,3.24%
7,COc1ccccc1CN1CCN(Cc2ccc(F)cc2)CC1,-5.29%
8,N#CC1=C(SCC(=O)Nc2nccs2)NC(=O)CC1c1ccccc1 (centres unmarked),-1.06%
9,Cc1cc(OCC(=O)Nc2cccnc2)cc(C)c1Cl,17%
10,Cc1ccc(-c2cn3nc(N4CCCC(C(=O)NCCN5CCCC5)C4)sc3n2)cc1 (centres unmarked),-0.878%
11,O=C(NCc1ccccc1)c1scc2c1CCCC2,0.777%
12,CCOC(=O)c1nnn(-c2nonc2N)c1C(F)(F)F,3.25%
13,Cn1nc(C(=O)Nc2cccc(C(F)(F)F)c2)cc1C(=O)Nc1cccc(C(F)(F)F)c1,3.35%
14,COc1ccc(-c2noc(CN(C(=O)COc3ccccc3C)C(C)C)n2)cc1,-0.352%
15,Cn1c2c(c(=O)n(C)c1=O)C(C(F)(F)F)(C(F)(F)F)NC(c1ccco1)=N2,-2.29%
16,COc1ccc(NS(=O)(=O)c2ccc(NC(=O)c3ccc(C)c(Br)c3)cc2)cc1,-2.76%
17,CCOC(=O)c1sc(NC(=O)c2cc(-c3ccccc3OC)on2)c(C(=O)OCC)c1C,-2.65%
18,O=C(c1cc2cc([N+](=O)[O-])ccc2oc1=O)N1CCOCC1,-2.32%
19,CCNC(=O)C1c2ccccc2C(=O)N(CCOC)C1c1cccs1 (centres unmarked),9.08%
20,O=S(=O)(c1ccccc1)c1cccc(S(=O)(=O)N2CCOCC2)c1,-3.55%
21,CCOC(=O)C1=C(C)N=C(N)SC1c1ccc(Cl)cc1 (centres unmarked),0.351%
